Out of some 52,000 compounds screened, about 4,300 (8.3%) were called active. Cut-off read from the data, not from the text of the source: active = survival mostly below about 52% (no sharp cut-off); inactive = mostly above about 56%. Some of the results follow.

This note sets out measurements from PubChem BioAssay AID463173 (ICCB-Longwood Screening Facility, Harvard Medical School, 2010).

This test deals with DeltatarO mutant. Briefly: growth inhibition of S. aureus wild type versus tarO mutant, primary screen, teichoic acid synthesis inhibitors, RN4220, OD600 (AID 463173). The settings on record: OD600, 18 h, active compounds read low, screened at 18.75 µg/mL (by protocol).
As for `CC(=O)c1ccc(NC(=O)CN(C)S(=O)(=O)c2cc3c(cc2C)NC(=O)CO3)cc1`, the survival is inactive: 84%. For `CC1(C(=O)Nc2cccc(C(F)(F)F)c2)Cc2ccccc2C(=O)O1` (stereo not drawn) the value was inactive: 96%. Turning to `COc1ccc(C(c2c(C)n(C)n(-c3ccccc3)c2=O)c2c(C)n(C)n(-c3ccccc3)c2=O)cc1O`, the survival was inactive: 84%. For `COc1cc(OC)c(NC(=O)Nc2nnc(N(C)C3CCCCC3)s2)cc1Cl` the value was active: 23%; for `CCOc1cccc2sc(N(Cc3cccnc3)C(=O)c3ccco3)nc12`, inactive: 77%; for `Cc1ccc(N2CC(NC(=O)Cc3cccs3)CC2=O)cc1` (stereo not drawn), active: 8%. For `COc1ccc(-c2cc3c(=O)n(CC(=O)Nc4ccccc4C(F)(F)F)ccn3n2)cc1OC` the value was inactive: 86%; for `CCCc1nc(N)c(C#N)c(-c2ccc(F)cc2)c1CC`, inactive: 66%. Consider `CCc1cc(=O)oc2cc(C)c3c(-c4ccc(F)cc4)coc3c12`, for which the survival is active: 33%. In the case of `CCCN(CCC)CCCNC(=O)c1cc2c(-c3ccc(Cl)cc3)nn(C)c2s1`, the survival was inactive: 129%. In the case of `Cc1cccc(NC(=O)CSc2nc3c(oc4ccccc43)c(=O)n2-c2ccccc2)c1C`, the survival is inactive: 79%. Take `Cc1ccc(S(=O)(=O)N2CCC(C(=O)Nc3cc(C)ccc3C)CC2)cc1`: the survival was inactive: 69%. `Cc1ccccc1CN1C(=O)c2ccccc2Sc2ccc(C(=O)N3CCOCC3)cc21`: the survival was inactive: 83%. As to `COc1ccccc1-c1c(C(F)(F)F)oc2c(CN3CCCCC3C)c(O)ccc2c1=O` (stereo not drawn), the survival was inactive: 62%.

On to `O=C(Nc1ccc2oc(-c3cccc4c(Br)cccc34)nc2c1)c1ccc(Br)cc1`, for which the survival is inactive: 71%. In the case of `CC(=O)c1[nH]c(C)c(C(=O)NCc2ccc(Cl)cc2)c1C` it was inactive: 100%. In the case of `COc1cc(C)c(S(=O)(=O)Nc2cccc(-c3ccc(N4CCCC4)nn3)c2)cc1C` it was inactive: 83%; in that of `CCN1C(=O)c2ccccc2S(=O)c2ccc(C(=O)N3CCN(c4ccc(F)cc4)CC3)cc21` (stereo not drawn), inactive: 75%; in that of `Cc1cccc(-c2nc(-c3ccc4c(c3)[nH]c(=O)n4C)no2)c1`, inactive: 89%. As for `Cc1cccc2cc(C(c3nnnn3CCc3ccccc3)N3CCN(c4nc5ccccc5s4)CC3)c(=O)[nH]c12` (stereo not drawn), the survival is inactive: 93%. As to `O=C(NC1CCCC1)c1ccc2c(c1)OCO2`, the survival is inactive: 69%. For the compound `COc1ccccc1CCNC(=O)Cc1c(C)c2c(O)cc(C)cc2oc1=O`, the survival is inactive: 55%. On to `COC(=O)c1ccc([C@@H]2Nc3c(cccc3C(F)(F)F)[C@@H]3C=CC[C@@H]32)cc1`, for which the survival is active: -3%. Turning to `COc1cc(-c2cc3n(C)c(C)c(CCC(=O)Nc4ccc(F)cc4)c(=O)n3n2)cc(OC)c1OC`, the survival was inactive: 70%.

`COc1ccc(Cn2c(=O)c3oc4ccccc4c3n(Cc3ccccc3)c2=O)cc1`: the survival is inactive: 82%. Turning to `Cc1ccc(OCCSc2nc(-c3cccs3)nc3cc(=O)[nH]n23)cc1Cl`, the survival is inactive: 112%. Take `O=C(CSc1c2c(nc3ccccc13)CCC2)Nc1ccc(F)cc1F`: the survival is inactive: 69%. `CC(CNC(=O)c1sc2ncccc2c1-n1cccc1)c1ccccc1` (stereo not drawn): the survival was inactive: 102%. In the case of `CC(C)(Oc1ccc(Cl)cc1)C(=O)Nc1cccc(-c2cn3cccnc3n2)c1`, the survival was inactive: 89%.

For `Cc1nc2scc(C)n2c(=O)c1S(=O)(=O)Nc1ccc(N2CCN(C(=O)C(C)C)CC2)cc1`, the survival is inactive: 156%. Regarding `CC1(C)CC(=O)c2cc(C(=O)Nc3ccc(Cl)cc3)c(=O)[nH]c2C1`, the survival was inactive: 88%. `Cn1c(=O)c2c(ncn2C/C=C/c2ccccc2)n(C)c1=O`: the survival is inactive: 69%. Consider `COc1ccc(NC(=O)CCN2CCOCC2)cc1`, for which the survival is inactive: 98%.

Regarding `Cc1ccc(NC(=O)CSc2nc3c(c(=O)[nH]2)CN(Cc2ccccc2)CC3)cc1Cl`, the survival is inactive: 70%. Take `Nc1nc2nc(-c3ccc(Cl)cc3)cc(C(F)(F)F)n2n1`: the survival was inactive: 182%. Take `COC(=O)c1c(NC(=O)C2c3ccccc3Oc3ccccc32)sc2c1CCC(C)C2` (stereo not drawn): the survival is inactive: 56%. In the case of `Nc1nonc1-c1nc2ccccc2n1Cc1ccc(Br)cc1` it was inactive: 84%; in that of `O=C1OC(Nc2ccccn2)c2ccccc21` (stereo not drawn), inactive: 42%. For `Cc1ccc(CSC2=Nc3ccccc3C3=NC(CCC(=O)NCCc4ccccc4)C(=O)N23)cc1` (stereo not drawn) the value was inactive: 80%; for `COC(=O)c1cc2occc2n1Cc1ccc(F)cc1Cl`, active: 30%; for `Cc1ccc(NC(=O)CN2C(=O)CSc3ccc(S(=O)(=O)N(C)C)cc32)cc1C`, inactive: 69%. Take `O=c1[nH]c2cc3c(cc2cc1CN(Cc1nnnn1CCc1ccccc1)C1CCCC1)OCCO3`: the survival is inactive: 65%. Regarding `Cc1ccc(-c2nn(CCC(=O)Nc3ccc(Cl)c(Cl)c3)c(=O)c3ccccc23)cc1`, the survival is inactive: 53%. In the case of `CCOc1cc(C2C(C(N)=O)=C(C)Nc3ncnn32)cc(Br)c1O` (stereo not drawn), the survival was inactive: 81%. Turning to `CN(C)CCNc1ccc(Cl)nn1`, the survival was inactive: 96%.

As to `Cc1ccc(C(=O)NCCSc2c(C)[nH]c3ccccc23)cc1C`, the survival is inactive: 55%.

For `CCOC(=O)C1CCN(C(=O)c2ccc(C)cc2)CC1`, the survival is inactive: 97%. For the compound `Cc1ccc2c(c1)-c1onc(C(=O)N3CCN(c4cc(C)ccc4C)CC3)c1CO2`, the survival was inactive: 66%. With `Cc1cc(C)n(-c2nc3cc(Cl)ccc3nc2N2CCN(c3cccc(C)c3C)CC2)n1`, the survival is active: -6%. `N#Cc1cccc(NC(=O)Nc2cccn(Cc3ccccc3)c2=O)c1`: the survival was inactive: 81%. In the case of `COc1ccccc1CNS(=O)(=O)c1c(C(=O)N2CCC(C)CC2)c(C)n(C)c1C` it was inactive: 100%; in that of `Cc1ccc(CCNC(=O)Cn2ncc3c([nH]c4ccccc43)c2=O)cc1`, inactive: 102%; in that of `COC(=O)C1C(=O)/C(=C/N(C)C)C(=O)CC1(C)C` (stereo not drawn), inactive: 101%.

With `Oc1c(C(c2ccc(F)cc2)N2CCCC2)sc2nc(-c3ccco3)nn12` (stereo not drawn), the survival is inactive: 83%. In the case of `Cc1ccc(S(=O)(=O)c2cn(C)c3cc(N4CCOCC4)c(F)cc3c2=O)c(C)c1` it was inactive: 75%; in that of `COc1ccc(N2CCN(c3ncnc4c3nc3n4CCCCC3)CC2)cc1`, inactive: 100%; in that of `Cc1ccc(CCNC(=O)C2COc3ccccc3C2)cc1` (stereo not drawn), inactive: 74%.

As to `Cc1ccc(Cl)cc1-n1c(=O)c2sc3ccccc3c2n(CC(=O)NC2CCCC2)c1=O`, the survival is active: 13%.
